Source: PubChem BioAssay AID1508642 (National Center for Advancing Translational Sciences (NCATS), 2021)
Hit rate of the full screen: of about 43,000 compounds, about 200 (0.47%) were called active. About 12% were inconclusive and are not listed. The call rests on the fitted dose curve; in most records, active means well fitted cell-killing curve with a large enough effect; inconclusive means small, poorly fitted or top-dose-only effect, or effect the other way; inactive means flat fitted curve, though single readings scatter. The list shows a part of the results.

assay: Cell viability qHTS assay in S16 Pmp22-F2sN cells; conditions: S16 Pmp22-F2sN Schwann cells (luciferase reporters placed in the Pmp22 gene) viability, CellTiter-Glo, 24 h; series mostly up to 57.5 µM; activity change, negative = cytotoxicity: at the top concentration; further: nearly all actives have a fitted effect of over 65% in size
Outline: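 Seed 500-1,000 S16 Pmp22-F2sN cells per well in phenol-red-free DMEM with 10% heat-inactivated FBS; pin-add 23 nL compound; incubate 24 h at 37C; add CellTiter-Glo, wait 15 min protected from light; read luminescence.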
On the % scale 0 is the no-effect control and ±100 the full control effect; potency means the concentration at half of the fitted maximal effect.

Compound	activity change, negative = cytotoxicity	Potency
CCC12CN3CC(C)(CN(C1)C3c1ccc(O)cc1O)C2=O (configuration not stated)	inactive: -2.28%	
Cc1cc(C)cc(Oc2coc3c(CN4CCN(C)CC4)c(O)ccc3c2=O)c1	inactive: 1.31%	
CCOc1ccc(NC(=O)c2c(NC(=O)c3ccco3)sc3c2CCC(C(C)(C)C)C3)cc1 (configuration not stated)	inactive: 4.77%	
O=C(O)CC(NS(=O)(=O)c1ccc(Cl)s1)c1ccccc1 (configuration not stated)	inactive: 1.78%	
Cc1nc2cccnc2n1-c1cccc(C(=O)NCc2ccc(OC(C)C)cc2)c1	inactive: -22.2%	
O=C(Nc1cccc(C(F)(F)F)c1)C1CCN(c2nnc(-n3cccc3)s2)CC1	inactive: -4.97%	
COc1cc(NS(=O)(=O)c2ccc(NC(=O)C(C)Oc3ccc(Cl)cc3Cl)cc2)nc(OC)n1 (configuration not stated)	inactive: 3.18%	
Cc1ccc(Nc2cc(C)nc3nc(Cc4ccc(Cl)cc4)nn23)cc1	inactive: -3.73%	
COc1cccc(CNC(=O)Cn2c(=O)oc3cc(S(=O)(=O)N4CCCC4)ccc32)c1	inactive: -12.7%	
Cc1ccc(-c2ccc(=O)n(Cc3ccc(F)cc3)n2)cc1	inactive: -27.5%	
CCC(=O)N1CCc2cc(Br)cc(S(=O)(=O)CCC(=O)Nc3cccc(CC)c3)c21	inactive: -18.5%	
COc1cccc(CNC(=O)c2nnn(CC(=O)Nc3cc(Cl)ccc3C)c2N)c1	inactive: 7.84%	
O=S(=O)(c1ccc(F)cc1)N1CCC(Oc2ccc(-n3cnnn3)cc2)CC1	inactive: 4.94%	
CC(NC(=O)C1(c2cccs2)CCOCC1)c1ccccc1 (configuration not stated)	inactive: 20%	
CCn1cc(C(=O)N2CCN(c3cc(Cl)ccc3C)CC2)c2cc(OC)c(OC)cc2c1=O	inactive: 18.3%	
Cc1ccc(CN2CCSc3ccc(C(=O)Nc4ccc(Cl)cc4)cc32)cc1	inactive: 1.66%	
CCOc1ccc(CCNC(=O)CCCc2cc(-c3ccc(OCC)cc3)on2)cc1	inactive: 5.07%	
CCOc1ccc(C(=O)Nc2c(C(=O)c3ccccc3)oc3ccccc23)cc1	inactive: 7.4%	
Cc1nc(N2CCCC2)c2c(C(=O)Nc3ccc(C)c(Cl)c3)c(C)oc2n1	inactive: 0.621%	
CCOc1ccccc1C1N=C(N)Nc2nc3ccccc3n21 (configuration not stated)	inactive: 7.4%	
CCC(CC)C(=O)Nc1cc(-c2cn3cccnc3n2)ccc1OC	inactive: 5.35%	
Cc1ccccc1-c1nnc(CN2CCN(c3cc(Cl)ccc3C)CC2)o1	inactive: -0.402%	
CCOC(=O)N1CCC(NC(=O)c2ccc3c(c2)N(Cc2cccc(C)c2)C(=O)c2ccccc2S3(=O)=O)CC1	inactive: -1.72%	
COc1ccc(C(CC(=O)Nc2ccc(C)cn2)N2Cc3ccccc3C2=O)cc1OC (configuration not stated)	inactive: 8.66%	
N#C/C(=C\c1ccc(-c2ccccc2C(=O)O)o1)c1nc2ccccc2[nH]1	inactive: -11.9%	

Compound	activity change, negative = cytotoxicity	Potency
Cc1cc(-c2ccc(C)c(S(=O)(=O)N3CCCC(C)C3)c2)on1 (configuration not stated)	inactive: -16.1%	
O=C(Cn1nc2c(cc1=O)CCCC2)Nc1ccc(F)cc1F	inactive: -2.46%	
COc1ccc(CCNC(=O)c2c(O)nc3cc(C)ccn3c2=O)cc1OC	inactive: 1.86%	
COc1ccc(-n2nc(C(=O)NCCc3ccc(Cl)cc3)c3c4ccccc4n(C)c3c2=O)cc1Cl	inactive: 18.1%	
O=C(Cn1c(=O)n(Cc2ccco2)c(=O)c2ccc(C(=O)NC3CCCC3)cc21)Nc1ccc(F)cc1	inactive: 18.5%	
Cc1cc(C)n(CC(=O)Nc2ccc(F)c(F)c2)c(=O)c1C#N	inactive: 5.99%	
COc1ccc(C)cc1NC(=O)C(=O)NCCc1sc(-c2ccc(Cl)cc2)nc1C	inactive: 1.05%	
CCc1noc(-c2ccc(NC(C)c3ccccc3)c([N+](=O)[O-])c2)n1 (configuration not stated)	inactive: 4.43%	
CCN(CC)C(=O)C1=C(C)Nc2nc3ccccc3n2C1c1ccc(Br)cc1 (configuration not stated)	inactive: -10.7%	
CC(=O)c1cccc(NC(=O)CCS(=O)(=O)c2cc3c(cc2C)NC(=O)CO3)c1	inactive: 1.19%	
CCOC(=O)c1c(NC(C)=O)c2c3c(sc2n1Cc1nc(-c2ccc(Cl)cc2)oc1C)CCCC3	inactive: 23.1%	
CCc1ccc(CNC(=O)c2ccc(CSc3nc4ccncc4n3Cc3ccc(OC)cc3)cc2)cc1	inactive: -16.4%	
COc1ccc(N2CCN(C(=O)Cc3coc4ccc(C)cc34)CC2)cc1	inactive: -3.11%	
COc1ccc(CCNC(=O)c2sc3nc4n(c(=O)c3c2C)CCCC4)cc1OC	inactive: 7.04%	
CCc1cccc(C)c1NC(=O)CC1Oc2ccc(C)cc2NC1=O (configuration not stated)	inactive: 2.72%	
Cc1ccc(CNC(=O)CCc2c(C)nc3c(c(C)nn3-c3ccccc3)c2C)cc1	inactive: 5.48%	
COc1ccc(C(=O)c2oc3ccccc3c2NC(=O)COc2ccccc2)cc1	inactive: 21.6%	
COc1ccc(Cl)cc1NS(=O)(=O)c1cc(Br)cc2c1N(C(=O)C1CC1)CC2	inactive: 2.8%	
CC(C)n1c(=N)c(C(=O)NCc2cccnc2)cc2c(=O)n3ccccc3nc21	inactive: -1.36%	
Cc1ccc(NC(=O)C2CCN(c3nc4ccccc4nc3C(F)(F)F)CC2)cc1F	inactive: -4.22%	
CCOC(=O)c1cc(-c2ccccc2)n(-c2cccc(C(=O)Nc3cccc(F)c3)c2)c1C	inactive: -17.6%	
COc1ccc(C(=O)Nc2nnc(S(=O)(=O)N3CCCCCC3)s2)cc1OC	inactive: -4.34%	
Cc1cccc(NC(=O)c2cc(S(=O)(=O)N3CCc4ccccc43)ccc2F)c1C	inactive: -9.04%	
O=C(Nc1cccc(Cl)c1)N1CCSc2ccccc21	inactive: -2.82%	
CCN(CC)c1cc(C)c2cc(NC(=O)c3cccc(F)c3)ccc2n1	inactive: -14.9%	

Compound	activity change, negative = cytotoxicity	Potency
CSc1ccc(CCNC(=O)c2cnn(-c3ccccc3)c2-n2cccc2)cc1	inactive: -12.2%	
CCOc1ccccc1NC(=O)c1c(NC(=O)COc2ccccc2)sc2c1CCCCC2	inactive: 0.531%	
CC(NC(=O)CCCC1=NS(=O)(=O)c2ccccc2N1)c1ccccc1 (configuration not stated)	inactive: 5.55%	
Cc1ccc(N2C(=O)CSC23C(=O)N(CC(=O)NCCc2ccccc2)c2ccccc23)cc1C (configuration not stated)	inactive: -16.8%	
CCOC(=O)c1cnc2c(ccc3ccccc32)c1Nc1ccccc1OCC	inactive: 1.48%	
COc1ccc(OC)c(-c2cc(C(=O)NCCc3ccccc3)c3c(-c4ccc(C)cc4)[nH]nc3n2)c1	inactive: -26.4%	
COCCCNC(=O)CS(=O)Cc1nc(-c2cccc(C)c2)oc1C (configuration not stated)	inactive: 4.51%	
CC(C)CS(=O)(=O)c1oc(-c2ccc(F)cc2)nc1S(=O)(=O)c1ccccc1		active: 4.47 µM
COc1cccc(Cn2nnc(C(=O)Nc3cc(C)ccc3C)c2N)c1	inactive: -8.83%	
CCOc1ccc(NC(=O)N2CCC(C(N)=O)(N3CCCCC3)CC2)cc1	inactive: 8.38%	
COc1ccc(CCNC(=O)c2cnc3ccc(C)cn3c2=O)cc1	inactive: 0.521%	
CCCS(=O)(=O)c1c(S(=O)(=O)CCC)c2cc(CC)ccn2c1C(=O)c1ccc(OC)cc1	inactive: -14%	
Cc1ccc2nc(NC(=O)CSc3nccn3Cc3ccc(Cl)cc3)sc2c1	inactive: 9.07%	
Cc1ccn2c(=O)c(C(=O)NCCc3ccccc3)c(O)nc2c1	inactive: -1.52%	
O=C(Cn1c(=O)n(Cc2ccccc2)c(=O)c2sc3ccccc3c21)NCc1ccccc1Cl	inactive: 2.13%	
O=C(CCc1nc(-c2cccs2)no1)Nc1ccccc1[N+](=O)[O-]	inactive: -0.849%	
O=C(NC1CC(=O)N(c2cccc(F)c2)C1)c1ccc(S(=O)(=O)N2CCCC2)cc1 (configuration not stated)	inactive: 0.45%	
COc1ccc(Cn2c(=O)[nH]c3cc(C(=O)N4CCN(c5cccc(Cl)c5)CC4)ccc3c2=O)cc1	inactive: 0.767%	
Cn1c(=O)n(-c2ccc(Br)cc2F)c(=O)c2sc3ccccc3c21	inactive: -1.35%	
CCOc1ccc(NC(=O)CN2C(=O)C(c3ccccc3)=NC23CCC(C)CC3)cc1 (configuration not stated)	inactive: -2.53%	
COc1cc2c(=O)c(S(=O)(=O)c3ccc(F)cc3)cn(Cc3ccc(Cl)cc3)c2cc1OC	inactive: 15.9%	
CCOC(=O)c1ccc(CN(Cc2ccc(F)cc2)S(=O)(=O)c2cc(C(=O)Nc3cccc(C(F)(F)F)c3)ccc2F)cc1	inactive: -8.32%	
O=C(NC1CCCCCC1)c1ccc2c(c1)sc1nc(-c3ccc(F)cc3)cn12	inactive: -17.3%	
CCCN1C(C(=O)c2ccccc2)=C(OC(=O)COc2ccccc2)c2ccccc2S1(=O)=O	inactive: -29.3%	
Cc1ccc(Cl)cc1NC(=O)C(C)n1nnc2sc3c(c2c1=O)CCCC3 (configuration not stated)	inactive: 1.02%	

Compound	activity change, negative = cytotoxicity	Potency
Cc1cccc(N2CCN(S(=O)(=O)c3ccc4c(c3)CCCN4C(=O)C3CCC3)CC2C)c1 (configuration not stated)	inactive: -23.9%	
COc1ccc(C2C(C(N)=O)=C(C)Nc3nc(CCCO)nn32)c(OC)c1 (configuration not stated)	inactive: -4.5%	
O=C(Nc1ccc(C(=O)OCc2cc(=O)n3c4c(sc3n2)CCCC4)cc1)c1ccccc1	inactive: 1.73%	
Cc1ccc(-c2nnc(Nc3cccc(Cl)c3)c3ccccc23)cc1S(=O)(=O)N1CCOCC1	inactive: 14.1%	
COc1ccccc1NC(=O)Cn1c(=O)n(Cc2ccccc2)c(=O)c2sc3ccccc3c21	inactive: -1.46%	
COc1ccc(C)cc1NC(=O)N(Cc1ccc(C)o1)C1CCN(C(C)=O)CC1	inactive: 17.1%	
O=C(Cn1cnc2c(oc3ccccc32)c1=O)Nc1ccccc1C(F)(F)F	inactive: 11.1%	
CC(C)COc1cccc(C(=O)Nc2ccc(-c3nc4ncccc4o3)cc2)c1	inactive: -13.6%	
CCCc1nc2sc3c(N4CCC(C)CC4)ncnc3c2c2c1CCCC2	inactive: 15.5%	
CCC(C(=O)Nc1cccc(Cl)c1C)n1nc(-c2ccc(C)cc2)ccc1=O (configuration not stated)	inactive: 2.71%	
O=C(NCc1cccc(Cl)c1)c1cc2ccc3cccnc3c2[nH]1	inactive: 8.78%	
CC(C)COc1ccc(C(=O)Nc2ccc(S(=O)(=O)Nc3ncccn3)cc2)cc1	inactive: 1.3%	
CCC(=O)Nc1cc(C)c(O)c(-c2nc3ncccc3o2)c1	inactive: 4.18%	
CC1CCN(C(=O)Cn2cc(SCC(=O)NCc3ccccc3Cl)c3ccccc32)CC1	inactive: -27.5%	
Cc1cc(C)c(NC(=O)CSc2nc3ccccc3nc2N2CCCCC2)c(C)c1	inactive: -1.33%	
O=C(Nc1cccc(-c2nc3cc(Cl)ccc3o2)c1)c1cc([N+](=O)[O-])ccc1N1CCOCC1	inactive: -0.226%	
CCn1c(=O)c2cc(C(=O)Nc3cc(F)ccc3F)sc2c2ccccc21	inactive: -9.74%	
COc1ccc(CN2C(=O)c3oc4ccccc4c(=O)c3C2c2ccc(O)cc2)cc1 (configuration not stated)	inactive: -0.84%	
COc1ccc(NC(=O)c2csc3c2CCCCC3)cc1	inactive: -5.22%	
Cc1ccc(Cc2nc3ccccc3nc2SCC(=O)NCCC(C)C)cc1	inactive: 15.5%	
Cc1ccc(Cc2c(C)nc3nc(SCC(=O)NC(C)c4ccccc4)nn3c2C)cc1 (configuration not stated)	inactive: -16.7%	
COc1cccc(-c2nc(SCc3cc(=O)c4ccc(C)c(C)c4[nH]3)n[nH]2)c1	inactive: -19.3%	
